# According to the supplement of paper PMC11417369:
# The other results are listed elsewhere or left out.
# Tested on: PfAP2-HC AP2 domain (GST-tagged)
# Experiment: gcPBM binding intensity (ln(normalized median fluorescence intensity)); higher = stronger DNA binding
# Summary of the method: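 GST-tagged P. falciparum DNA-binding domains produced in E. coli were incubated for 1 h on an Agilent 4 × 180k array of primer-extended double-stranded 36-bp intergenic genomic probes with negative controls. Binding intensity is the highest Masliner-normalised natural-log median intensity across replicate spots of either probe orientation, with bound protein detected by Alexa488 anti-GST antibody at 488 nm.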
row,Sequence,gcPBM binding intensity (ln)
1,AATATTTTATATGTAGTGCATTACTATAGGATTTAT [GTGCAC_site9424],9.63
2,GCTGAAAGGATAAAGGTGCATATTTTTTAAAAAATT [GTGCAC_site9487],9.43
3,TGTGTCAAATAATTAATGTCATATATATTTTGTATA [CACACA_negctrl_site1479],9.57
4,ACAAAATAAACGGCTGCACACAAGAAGCACAATATT [CACACA_site3690],10.6
5,GATAGAAAAAAATAATGTACACACACATATATGTTT [XGTACX_site392],10.1
6,GGCAGCAATTTAGTTACACACATATATAGGTATACA [CACACA_site76],9.76
7,TTTCTTTTTTCTGTTATTATTATAAAACGATATTTA [TGCATGCA_negctrl_site167],9.58
8,TACACATACCCATACACACGCATAGAAACATACGAA [CACACA_site5212],10.2
9,TATTTTTATTTTAATTGTACTTTTTAATTAATAATA [XGTACX_site8302],9.15
10,ATACATATTCTTATTTGTACTTATTATAAAATGGTC [XGTACX_site6584],9.56
11,TAACTGATATATAAAACACACATCATAAAAATATAA [CACACA_site6499],9.78
12,TTGCATCTACATTTATGTACATATCTTATGATAAAT [XGTACX_site2146],9.95
13,ACAATAATTTCCATCACACATATATTTATATATTAC [CACACA_site6003],9.8
14,AGATATATTTTTTAAATTTAAAAATTATAAAATTTA [CACACA_negctrl_site533],9.33
15,AAATATATCTTCTTTGCACACTTAAAGGGAAGTGAT [CACACA_site343],9.56
16,TTGAACCTGATAAATACACACAATATAGATTTTTTT [CACACA_site7091],9.65
17,TCAAAATGTTACAAATTATGTTGGCTAAAATTTTAA [TGCATGCA_negctrl_site188],9.33
18,AATTATACTCACGTTACACACACACTATATATATAT [CACACA_site9375],10.3
19,TATAATATAATATTTTGTACATATGATAAAAAAAAA [XGTACX_site6858],9.61
20,ACACATATAAATAAAACATGCATATGTAAATATATA [TGCATGCA_site403],10.1
21,ATTTATATATAATATACACACATATAATACCCATAT [CACACA_site4548],10
22,TTTTTTAACTGTATGATGTTATATTAAAAATAAAAA [GTGCAC_negctrl_site463],9.12

row,Sequence,gcPBM binding intensity (ln)
1,AACGCACGAGGACACACACACATATTTATATTTATA [CACACA_site6608],11.4
2,TTTAATATTAGCATATGTACACAAATCACACGGAAA [XGTACX_site2473],9.79
3,TATATTATGACCACCACACACCTATACACATAACAT [CACACA_site7199],10.1
4,TAATCCTTTCAATATTGTACACATTTGTGTTAAGAA [XGTACX_site1275],9.56
5,ATTTAAAAAAAAAAAAAAAAAAAAAAAAAAAGAAAA [CACACA_negctrl_site722],9.02
6,ATATATTTTATATAATGTACATAAACCGCACACATA [XGTACX_site6061],9.94
7,TTTCAAATTTAATACACACACAAGTATATATCTATC [CACACA_site7782],10
8,ATAATATAAATACAAACACACAATTGCGTCCACATT [CACACA_site5039],10.1
9,TCATACGAAATATAAACACACATACAATAAATAAAT [CACACA_site5156],10.3
10,ATTTAATTTGTTCTTACACACACATATATATATATT [CACACA_site8310],10.2
11,TCAAATATATAGAATACACACATGGATATAAGAAAT [CACACA_site4065],10
12,CGTTTTAATAAGATCACACATATAATATATATATAT [CACACA_site5159],9.59
13,ATTATAACCATATACACACCCATATAAATAAATATA [CACACA_site6926],10.5
14,GGACAAGAATAGTGCACATGCAATGTTATTTTTTAT [TGCATGCA_site450],9.77
15,ATATTAAATGTTATCACACACATAATTACTTCCATA [CACACA_site7160],10
16,TATTAAATGGCCATTACATGCAATTATTTCTAATAA [TGCATGCA_site275],9.43
17,GAATAATATGGACATACACACATATACATACATATA [CACACA_site2114],10.1
18,TTATTTCATTCTTGAAGTACGTGAAAAATGAAAACA [XGTACX_site4089],9.44
19,ACATATGAATATAATACACACTTGTATTATTAATAT [CACACA_site8546],9.79
20,AAAAAAAAAAAAAGAGTGCAAACTATGATAATTTAA,9.79
21,TTACCTTTATTGTATGAACACACATAAGCTGATACA [CACACA_site9334],9.73
22,TTAGTTATTAAAAAAAGTACATAAGTAGATATCATC [XGTACX_site8712],9.66
